Results reported in publication PMC7049730, “Adjacent mutations in the archaeal Rad50 ABC ATPase D-loop disrupt allosteric regulation of ATP hydrolysis through different mechanisms” (Nucleic Acids Research, 2019).

B1: Full-length P. furiosus Rad50 L51C/L828F, LRET-labelled (natural protein)
chain: not shown
modifications: Tb3+ chelate DTPA-cs124-EMPH and Bodipy FL maleimide added together, on the cysteine L51C
notes: Rad50, Pyrococcus furiosus, full length; Measured within the full-length MR complex with Mre11; also called L828F full-length MR (LRET); source: E. coli Rosetta (DE3), purified (heat, HisTrap, TEV cleavage, HiTrapQ, Superdex 200); labelled; not shown: His6, N-terminal, cleaved
B2: Full-length P. furiosus Rad50 L51C/D829N, LRET-labelled (natural protein)
chain: not shown
modifications: Tb3+ chelate DTPA-cs124-EMPH and Bodipy FL maleimide added together, on the cysteine L51C
notes: Rad50, Pyrococcus furiosus, full length; Measured within the full-length MR complex with Mre11; also called D829N full-length MR (LRET); source: E. coli Rosetta (DE3), purified (heat, HisTrap, TEV cleavage, HiTrapQ, Superdex 200); labelled; not shown: His6, N-terminal, cleaved
B3: Full-length P. furiosus Rad50 L51C/L828A, LRET-labelled (natural protein)
chain: not shown
modifications: Tb3+ chelate DTPA-cs124-EMPH and Bodipy FL maleimide added together, on the cysteine L51C
notes: Rad50, Pyrococcus furiosus, full length; Measured within the full-length MR complex with Mre11; also called L828A full-length MR (LRET); source: E. coli Rosetta (DE3), purified (heat, HisTrap, TEV cleavage, HiTrapQ, Superdex 200); labelled; not shown: His6, N-terminal, cleaved
B4: Full-length P. furiosus Rad50 L51C/D829A, LRET-labelled (natural protein)
chain: not shown
modifications: Tb3+ chelate DTPA-cs124-EMPH and Bodipy FL maleimide added together, on the cysteine L51C
notes: Rad50, Pyrococcus furiosus, full length; Measured within the full-length MR complex with Mre11; also called D829A full-length MR (LRET); source: E. coli Rosetta (DE3), purified (heat, HisTrap, TEV cleavage, HiTrapQ, Superdex 200); labelled; not shown: His6, N-terminal, cleaved
B5: Full-length P. furiosus Rad50 L51C, LRET-labelled (natural protein)
chain: not shown
modifications: Tb3+ chelate DTPA-cs124-EMPH and Bodipy FL maleimide added together, on the cysteine L51C (Zn-hook cysteines labelled ~10% in a control)
notes: Rad50, Pyrococcus furiosus, full length, cloned from genomic DNA (ATCC); Dual-labelled Rad50 mixed 1:1 with Mre11; the LRET reports on the association of the two NBDs within the full-length MR complex; also called wild type full-length MR (LRET); full-length Pf Rad50 L51C; source: E. coli Rosetta (DE3), purified (heat, HisTrap, TEV cleavage, HiTrapQ, Superdex 200); labelled; not shown: …

Molecular target: the molecule itself
Assay: FRET or BRET; LRET on dual-labelled (Tb3+ chelate and Bodipy FL on L51C) full-length Rad50 mixed 1:1 with Mre11, 0.5 uM MR complex; donor-sensitized acceptor lifetimes, three-exponential fit; no ATP (apo); 50 mM Tris, 200 mM NaCl, 5 mM MgCl2, pH 7.5, 50 °C; percent of LRET-visible molecules only
With B1 the “percent of molecules in the closed state” value was 19%.
In the case of B2, the “percent of molecules in the closed state” value is reported as 19%.
With B3 the “percent of molecules in the closed state” value was 16%.
For B4, the “percent of molecules in the closed state” value was 17%.
B5 was tested, and the “percent of molecules in the closed state” value was 15%.

Molecular target: the molecule itself
Assay: FRET or BRET; as a3 but with 2 mM ATP (ATP-bound); full-length MR complex, 0.5 uM
In the case of B1, the “percent of molecules in the closed state” value is reported as 25%.
In the case of B2, the “percent of molecules in the closed state” value is reported as 20%.
In the case of B3, the “percent of molecules in the closed state” value is reported as 17%.
In the case of B4, the “percent of molecules in the closed state” value is reported as 24%.
With B5 the “percent of molecules in the closed state” value was 28%.
